Test results from PubChem BioAssay AID686979 (National Center for Advancing Translational Sciences (NCATS), 2013).
In all, about 420,000 compounds went through this assay and about 50,000 (12%) were called active. Inconclusive means that the source gave no clear call. Such entries were picked first, then a sample of the others. The call rests on the fitted dose curve; in most records, active means well fitted inhibition curve with a large enough effect; inconclusive means small, poorly fitted or top-dose-only effect; inactive means flat fitted curve, though single readings scatter. No potency is given beside an inconclusive call; the fits are too rough.
On the % scale 0 is the no-effect control and ±100 the full control effect; potency means the concentration at half of the fitted maximal effect; tags describe the fitted curve by direction and shape.

Test: qHTS for Inhibitors of human tyrosyl-DNA phosphodiesterase 1 (TDP1): qHTS in cells in presence of CPT; further: nearly all actives have a fitted effect of over 55% in size
Details: chicken DT40 Tdp1-/-;hTDP1 cells + 20 nM CPT, ATP luminescence, 48 h; activity change, negative = growth inhibition: at 46.2 µM (top of the series)
Summary of the method: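 Cell growth measured by CellTiter-Glo luminescence after a minimum 48 h, 37 C compound exposure with 20 nM CPT in Tdp1-knockout DT40 cells stably expressing hTDP1, seeded 400/well; qHTS titration format.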
For `O=C(CC1C(=O)NCCN1Cc1cccc(Oc2ccccc2)c1)NCCc1ccncc1` (stereo unspecified), the “activity change, negative = growth inhibition” value was inactive: -29.6%.
With `CC(C)(C)c1ccc(C(=O)NNC(=S)NC(=O)c2cccnc2)cc1` the Potency was active: 7.31 µM.
In the case of `CN(c1ccc([N+](=O)[O-])cc1/C=N/NC(=O)COc1ccccc1)C1CCCCC1`, the Potency is reported as inconclusive [inhibitor, single point].
With `O=[N+]([O-])c1ccc(S(=O)(=O)CC2CSc3nc4ccccc4n32)cc1` (stereo unspecified) the Potency was active: 13 µM.
With `COc1ccc(S(=O)(=O)N2CCCC2)cc1C(C)C` the “activity change, negative = growth inhibition” value was inactive: -28.8%.
In the case of `Cc1cccc(OCC(=O)N(Cc2ccc(N(C)C)cc2)Cc2ccco2)c1C`, the Potency is reported as inconclusive [inhibitor, single point].
With `Fc1ccc(CCNc2ncnc3[nH]ncc23)cc1` the Potency was inconclusive [inhibitor, single point].
For `COc1ccc(C2C=C(c3ccccc3)Nc3nc(NC(=O)/C=C/c4ccccc4OC)nn32)cc1` (stereo unspecified), the Potency was active: 5.8 µM.
In the case of `O=C(Nc1nc(-c2ccc3c(c2)Cc2ccccc2-3)cs1)c1ccccc1`, the Potency is reported as inconclusive [inhibitor, partial curve].
For `CC(C)Cn1c(C(C)C)nc([N+](=O)[O-])c1S(=O)(=O)c1ccc(F)cc1`, the Potency was active: 2.31 µM.
With `COc1ccc(C(=O)NC(=S)Nc2cccc(NC(=O)c3ccco3)c2)cc1[N+](=O)[O-]` the Potency was inconclusive [inhibitor, partial curve].
For `O=C(c1cccc(S(=O)(=O)N2CCc3ccccc3C2)c1)N1CCN(c2ccc(O)cc2)CC1`, the Potency was active: 14.6 µM.
With `Cc1cc(C)nc(Nc2nc3ccccc3[nH]2)n1` the “activity change, negative = growth inhibition” value was inactive: 0.694%.
In the case of `Cc1ccc(S(=O)(=O)N/N=C\c2ccc(Cl)c([N+](=O)[O-])c2)cc1`, the Potency is reported as inconclusive [inhibitor, partial curve].
For `O=CNc1ccc(/C=C/c2ccnc3ccccc23)cc1`, the Potency was active: 12.6 µM.
For `COc1ccc2nc(NC(=O)C3COc4ccccc4O3)sc2c1` (stereo unspecified), the “activity change, negative = growth inhibition” value was inactive: -10.2%.
With `Cc1ccc(CN(Cc2ccccc2)C(=S)Nc2ccccc2C)o1` the Potency was inconclusive [inhibitor, partial curve].
With `CN(C)CCCNC(=O)c1ccccn1` the “activity change, negative = growth inhibition” value was inactive: -0.278%.
In the case of `CC(=O)N1N=C(c2ccco2)CC1c1cc2ccc(C)cc2nc1Cl` (stereo unspecified), the Potency is reported as inconclusive [inhibitor, single point].
For `CCc1ccc(S(=O)(=O)c2nnn3c2nc(NC(C)C)c2cc(Cl)ccc23)cc1`, the Potency was inconclusive [inhibitor, single point].
In the case of `CC(C)C(=O)N1CCN(C2=NS(=O)(=O)c3ccccc32)CC1`, the Potency is reported as inconclusive [inhibitor, single point].
In the case of `Cc1cccc(N(CC(=O)N(C)Cc2ccccc2)S(=O)(=O)c2ccccc2)c1C`, the Potency is reported as inconclusive [inhibitor, single point].
With `Cc1ccc(C(=O)N2CCN(c3ncccn3)CC2)cc1NC1=NC2CS(=O)(=O)CC2S1` (stereo unspecified) the “activity change, negative = growth inhibition” value was inactive: 1.06%.
In the case of `CCOc1ccccc1N(CC(=O)NC1CCCC1)S(=O)(=O)c1ccc(C)cc1`, the Potency is reported as inconclusive [inhibitor, single point].
In the case of `COc1ccccc1CNC(=O)c1ccc(CS(=O)c2ccccc2Cl)o1` (stereo unspecified), the Potency is reported as inconclusive [inhibitor, single point].
With `O=C(CN1CCN(CC(=O)Nc2ccccc2Cc2ccccc2)CC1)Nc1ccccc1Cl` the Potency was active: 10.3 µM.
With `Cc1ccccc1CNC(=O)c1csc([C@@H]2C[C@H](O)[C@@H](CO)O2)n1` the “activity change, negative = growth inhibition” value was inactive: -3.9%.
For `Cc1cccc([C@@H]2[C@@H]3C(=O)N(Cc4ccccc4)C(=O)[C@@H]3[C@]3(C)C(=O)N(c4cccc(Cl)c4)C(=O)N23)c1`, the Potency was inconclusive [inhibitor, single point].
For `O=C(CSc1n[nH]c(-c2ccccc2)n1)Nc1ccc(N2CCOCC2)cc1`, the Potency was inconclusive [inhibitor, partial curve, poor fit].
In the case of `COc1cccc(OCc2cc(C3Nc4ccccc4C(=O)N3c3ccccc3)ccc2OC)c1` (stereo unspecified), the Potency is reported as active: 10 µM.
In the case of `CC(=O)c1cc(-c2ccccc2)n(CCC(=O)NC2CCCCC2)c1C`, the Potency is reported as inconclusive [inhibitor, single point].
For `O=c1c2c3c(sc2n(CCN2CCOCC2)c(=O)n1Cc1ccco1)CCCCC3`, the Potency was active: 8.2 µM.
In the case of `CC12CN3CC(c4ccccc4)(CN(C1)C3c1ccc(Cl)cc1)C2=O` (stereo unspecified), the Potency is reported as inconclusive [inhibitor, single point].
In the case of `CNc1ccccc1C(=O)OC(C)C(=O)Nc1ccc(S(=O)(=O)N2CCCC2)cc1` (stereo unspecified), the Potency is reported as inconclusive [inhibitor, single point].
For `O=c1cc(CO)[nH]cc1OCc1ccccc1`, the “activity change, negative = growth inhibition” value was inactive: 4.4%.
With `CCCN(CC1CC1)C(=O)COC(=O)c1ccc(C)cc1O` the “activity change, negative = growth inhibition” value was inactive: 6.29%.
For `CC(C)C(=O)N1CCC1(C)C(=O)Nc1ccc2[nH]ccc2c1` (stereo unspecified), the “activity change, negative = growth inhibition” value was inactive: -18.1%.
In the case of `Nc1nc(COc2ccc(Cl)cc2)cs1`, the “activity change, negative = growth inhibition” value is reported as inactive: -20.3%.
For `Cc1ccc(Nc2nnc(SCC(=O)NCC3CCCO3)s2)cc1C` (stereo unspecified), the Potency was inconclusive [inhibitor, single point].
In the case of `CSc1nc(N)nc2c1ncn2CC(=O)NCCCc1ccccc1`, the Potency is reported as inconclusive [inhibitor, single point].
In the case of `CCc1cccc2c(C(=O)CN3C(=O)NC(C)(c4cccc5ccccc45)C3=O)c[nH]c12` (stereo unspecified), the Potency is reported as inconclusive [inhibitor, single point].
With `COc1c(C(=O)Nc2nnc(C3CC3)s2)csc1Cl` the “activity change, negative = growth inhibition” value was inactive: -10.2%.
In the case of `O=C(c1cc(-c2ccc(F)cc2)nc2ccccc12)N1CCN(C2CCS(=O)(=O)C2)CC1` (stereo unspecified), the activity change, negative = growth inhibition is reported as inconclusive: -30.9% [inhibitor].
In the case of `COc1ccc(N2CCN(c3oc(/C=C/c4ccccc4OC)nc3C#N)CC2)cc1`, the Potency is reported as inconclusive [inhibitor, single point].
For `CC(OC(=O)c1ccc([N+](=O)[O-])cc1)C(=O)NCC1CCCCC1` (stereo unspecified), the Potency was inconclusive [inhibitor, single point].
With `Cc1cc(NS(=O)(=O)c2ccc(NC(=S)NC(=O)c3cccnc3)cc2)no1` the “activity change, negative = growth inhibition” value was inactive: -7.76%.
For `C/C(=N\NC(=O)COc1ccc(C)cc1[N+](=O)[O-])c1cccs1`, the Potency was inconclusive [inhibitor, single point].
For `O=C(c1ccco1)N1CCN(/C=C2\Nc3ccccc3C(=O)N2c2ccc(F)cc2)CC1`, the “activity change, negative = growth inhibition” value was inactive: -2.97%.
In the case of `O=C(Nc1ccc2c(c1)OCCO2)c1cc2sccc2n1Cc1ccc(F)cc1`, the Potency is reported as inconclusive [inhibitor, single point].
For `CC1(C(=O)Nc2ccc3ccccc3c2)CCC(=O)N1CCc1c[nH]c2ccccc12` (stereo unspecified), the Potency was inconclusive [inhibitor, single point].
In the case of `Clc1cccc(Cc2c(-c3cccc(Br)c3)nc3ccc(Cl)cn23)c1`, the Potency is reported as inconclusive [inhibitor, single point].
In the case of `CCN1C=C(C(=O)OC)C(c2cccc(OC)c2OC)C(C(=O)OC)=C1`, the “activity change, negative = growth inhibition” value is reported as inactive: -7.85%.
In the case of `C[C@H](CO)NC(=O)c1nc[nH]c1C(=O)N[C@H](C)c1ccccc1`, the “activity change, negative = growth inhibition” value is reported as inactive: -0.85%.
For `CCOC(=O)C1=C(COc2ccccc2)NC(=O)NC1c1ccc(Cl)cc1` (stereo unspecified), the Potency was inconclusive [inhibitor, single point].
In the case of `Nc1cc(Cl)ccc1N1CCCCC1`, the Potency is reported as inconclusive [inhibitor, single point].
In the case of `CC(=O)Nc1cc(-c2cccc(N)c2)cn2c(-c3ccc(C(C)=O)cc3)cnc12`, the Potency is reported as inconclusive [inhibitor, single point].
In the case of `CCOC(=O)c1cc2nc(-c3ccco3)cc(C(F)(F)F)n2n1`, the Potency is reported as inconclusive [inhibitor, single point].
In the case of `CC1(c2nnnn2Cc2ccccc2)CCC(=O)N1Cc1cccnc1` (stereo unspecified), the “activity change, negative = growth inhibition” value is reported as inactive: -7.14%.
For `CCN1C(=O)/C(=C/C=C2/CCCN2C)OC1=S`, the Potency was inconclusive [inhibitor, partial curve, poor fit].
With `CN(C)c1ccnc2sc3c(SCc4ccc(Cl)cc4)ncnc3c12` the Potency was active: 16.4 µM.
With `C#CCOCCOCCOCCNc1nc(N2CCN(C(=O)[C@H]([C@@H](C)CC)n3cc([C@@H](N)CC(C)C)nn3)CC2)nc(N2CCN(C(=O)[C@H](Cc3ccc(O)cc3)n3cc([C@@H](N)CC(C)C)nn3)CC2)n1` the “activity change, negative = growth inhibition” value was inactive: -17%.
In the case of `O=C(COc1ccc(-c2ccccc2)cc1)N/N=C/c1cccnc1`, the Potency is reported as inconclusive [inhibitor, single point].
In the case of `CC(NC(=O)COC(=O)CCc1ccccc1)c1ccccc1` (stereo unspecified), the “activity change, negative = growth inhibition” value is reported as inactive: 4.93%.
With `CCOc1cc(NC(=O)C2CC2)c(OCC)cc1NC(=O)c1cccc(F)c1` the “activity change, negative = growth inhibition” value was inactive: -6.03%.
In the case of `Cc1c(NC(=O)C(Sc2ccccc2)c2ccccc2)cccc1[N+](=O)[O-]` (stereo unspecified), the Potency is reported as inconclusive [inhibitor, single point].
With `CC(C)Oc1ccc(CNC(=O)c2cccc(NC(=O)c3nsc4ccccc34)c2)cc1` the Potency was active: 4.61 µM.
With `Cc1ccccc1C(=O)N1CCCC(N2CCN(Cc3ccc4c(c3)OCO4)CC2)C1` (stereo unspecified) the Potency was inconclusive [inhibitor, single point].
With `Cc1cc(C)c(C)c(S(=O)(=O)N2CCN(C(=O)c3cc(=O)[nH]c4ccccc34)CC2)c1C` the Potency was inconclusive [inhibitor, single point].
In the case of `Cc1c(-c2cccs2)[n+](=O)c2c(n1[O-])CCCC2`, the “activity change, negative = growth inhibition” value is reported as inactive: 1.6%.
In the case of `COCCN(C(=O)c1cc(-c2ccco2)nc2ccccc12)c1c(N)n(Cc2ccccc2)c(=O)[nH]c1=O`, the “activity change, negative = growth inhibition” value is reported as inactive: 1.79%.
For `O=C(Nc1nc(-c2ccco2)c(-c2ccco2)s1)C1CC(=O)N(c2ccc3c(c2)OCCO3)C1` (stereo unspecified), the Potency was active: 16.4 µM.
